Data published in article PMC4336329 (PLoS ONE, 2015).
About 14,000 (4.5%) of roughly 310,000 compounds showed an effect of 50% or more. The effect is printed as a negative number. The list shows a part of the results.

Molecular target: human ether-à-go-go-related gene (hERG) potassium channel (human, UniProt Q12809)
Experiment: primary screen, population patch clamp on CHO cells stably expressing hERG
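Also: peak tail current of the secondary pulse compared with the same well before compound.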

Sequence of human ether-à-go-go-related gene (hERG) potassium channel (Q12809 whole entry, looked up): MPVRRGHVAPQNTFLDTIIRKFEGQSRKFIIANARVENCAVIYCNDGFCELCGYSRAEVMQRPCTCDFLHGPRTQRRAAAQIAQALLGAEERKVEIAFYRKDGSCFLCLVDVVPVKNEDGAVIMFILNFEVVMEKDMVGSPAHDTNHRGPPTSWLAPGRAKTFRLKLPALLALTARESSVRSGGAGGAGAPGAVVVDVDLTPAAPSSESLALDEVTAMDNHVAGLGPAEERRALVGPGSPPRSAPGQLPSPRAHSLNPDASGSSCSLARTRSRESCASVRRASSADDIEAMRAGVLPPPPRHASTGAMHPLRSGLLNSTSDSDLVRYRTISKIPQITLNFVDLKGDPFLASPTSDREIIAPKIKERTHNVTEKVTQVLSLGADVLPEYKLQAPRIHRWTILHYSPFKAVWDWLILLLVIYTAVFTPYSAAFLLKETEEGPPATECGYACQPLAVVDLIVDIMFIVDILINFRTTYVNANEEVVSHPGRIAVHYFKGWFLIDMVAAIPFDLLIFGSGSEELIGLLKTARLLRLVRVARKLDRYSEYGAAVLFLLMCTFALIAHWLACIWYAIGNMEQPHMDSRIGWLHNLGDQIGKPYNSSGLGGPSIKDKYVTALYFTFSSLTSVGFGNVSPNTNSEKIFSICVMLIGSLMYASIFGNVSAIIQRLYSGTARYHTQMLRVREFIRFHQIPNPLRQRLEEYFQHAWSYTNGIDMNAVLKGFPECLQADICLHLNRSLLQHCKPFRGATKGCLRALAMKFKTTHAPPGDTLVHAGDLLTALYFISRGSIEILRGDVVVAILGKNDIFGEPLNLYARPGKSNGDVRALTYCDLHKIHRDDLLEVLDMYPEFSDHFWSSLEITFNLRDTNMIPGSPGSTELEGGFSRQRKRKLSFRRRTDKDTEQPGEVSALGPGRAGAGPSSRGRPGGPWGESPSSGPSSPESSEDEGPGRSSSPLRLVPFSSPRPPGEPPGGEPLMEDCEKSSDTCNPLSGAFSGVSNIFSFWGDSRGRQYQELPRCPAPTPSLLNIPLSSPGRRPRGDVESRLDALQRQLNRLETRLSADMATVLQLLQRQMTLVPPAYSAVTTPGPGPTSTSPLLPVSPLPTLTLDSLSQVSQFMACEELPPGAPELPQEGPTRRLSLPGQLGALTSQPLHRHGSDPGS

| Structure (SMILES) | hERG current change (%, negative = inhibition) at 10uM [%] |
| --- | --- |
| Cn1nc(C(=O)OCc2ccccc2F)c2ccccc2c1=O | 13 |
| CC(C)(C)c1cc(NC(=O)Nc2ccc(Br)cc2Cl)no1 | 25.1 |
| CCOC(=O)c1c(-c2ccc(C)o2)csc1NC(=S)NC(=O)c1ccccc1Br | 15.3 |
| Cl.c1ccc2c(Nc3ccc4c(c3)OCCO4)c3c(nc2c1)CCC3 | -52.3 |
| COc1ccc2c(c1)C(c1ccc(Cl)cc1)NC(=O)C2 (stereo not drawn) | -5.84 |
| CCc1ccccc1NC(=O)Nc1cccn(Cc2ccccc2F)c1=O | -19.5 |
| O=C(O)c1[nH]c2ccccc2c1C(c1ccccc1)c1c(C(=O)O)[nH]c2ccccc12 | 25.4 |
| Cc1cccc(CCNCc2cc3ccc(C)cc3[nH]c2=O)c1 | -77.3 |
| N#C/C(Cn1c[n+](NC(=O)Nc2ccccc2)cn1)=N/O.[Cl-] | 16.2 |
| O=C(Cn1ncc2c([nH]c3ccccc32)c1=O)NCC1CCN(Cc2ccc(F)cc2)CC1 | -66 |
| CC(=O)Nc1cccc(C(=O)NC(C)c2ccc(-n3ccnc3)cc2)c1 (stereo not drawn) | -0.474 |
| COc1ccc2[nH]c(=O)c(CN(C(=O)c3ccccn3)c3ccccc3)cc2c1 | 21 |
| CC1(C)Cc2c(c(N3CCOCC3)nc3snc(N)c23)CO1 | 2.29 |
| COc1ccc(/C=N\NC(=O)c2cccc(Br)c2)c(OC)c1 | -10.8 |
| Cc1ccc(C(=O)N/C(=C/c2ccccc2F)C(=O)NCCCn2ccnc2)cc1 | -40.5 |
| C=CCOC(=O)C1=C(C)NC(SCC(=O)Nc2nccs2)=C(C#N)C1c1ccc(Cl)cc1 (stereo not drawn) | 17.2 |
| CCOC(=O)c1c(C)nc2sc3c(=O)n(-c4ccc(C(C)=O)cc4)nnc3c2c1-c1ccc(OC)cc1 | 17.4 |
| O=C(CSc1n[nH]c(-c2cccs2)n1)N1CCCc2ccccc21 | -16.6 |
| CCn1c(C)c(C(C)=O)c(N2CCCC2)nc1=S | -6.59 |
| Cc1occc1-c1nnc(SCC(=O)N2CCCCC2C)o1 (stereo not drawn) | -12.1 |
| CC1(C)CC(=O)C2=C(C1)Nc1cc3c(cc1C2c1ccc2c(c1)OCO2)OCO3 (stereo not drawn) | -13.2 |
| O=C(O)Cc1ccc(C(=O)c2ccccc2F)s1 | 10.3 |

| Structure (SMILES) | hERG current change (%, negative = inhibition) at 10uM [%] |
| --- | --- |
| NC1=NC(=O)/C(=C\c2cccnc2)S1 | -2.29 |
| COc1ccc(CC(=O)NNC(=O)c2cccnc2)cc1OC | 14.5 |
| CC1(C)C(=O)Nc2ccccc2N1C(=O)COC(=O)CSc1ccc(F)cc1 | -2.24 |
| COc1cc(/C=N/NC(=O)C2(O)c3ccccc3-c3ccccc32)ccc1O | -4.46 |
| CC(=O)N1c2ccccc2N(Cc2ccc(C)cc2C)C(=O)C1(C)C | -12.4 |
| CSc1nc2nc(-c3cccs3)cc(C(F)(F)F)c2c(=O)[nH]1 | 12.9 |
| Cc1nc(SCC(=O)NCCc2ccccc2)c2oc3ccccc3c2n1 | 0.202 |
| COc1ccc(C2C(C(=O)Nc3cc(C)on3)c3ccccc3C(=O)N2C)cc1 (stereo not drawn) | 5.67 |
| O=C(Nc1ccccc1C(=O)N1CCOCC1)C1COc2ccccc2O1 (stereo not drawn) | -3.33 |
| COc1ccc(S(=O)(=O)CCC(=O)O)cc1 | 15 |
| O[C@H]1c2ccccc2[C@H](Cc2cncs2)[C@@H]1Br | 0.746 |
| Cn1cccc1/C=C1\SC(=S)N(Nc2ccccc2)C1=O | 9.36 |
| COc1cc(N2Cc3ccccc3C2)ccc1C=O | -3.61 |
| COc1cccc(NC(=O)CNc2cc(S(=O)(=O)N3CCOCC3)ccc2N2CCCC2)c1 | -5.36 |
| COc1ccccc1CNC(=O)CC12CC3CC(CC(Br)(C3)C1)C2 | 14 |
| CCCCNCCOCCOc1ccc(C)cc1[N+](=O)[O-].O=C(O)C(=O)O | -44.7 |
| COc1cc(NC(=O)C2CCCC2)c(OC)cc1Cl | -9.08 |
| Cc1ccc(N=Cc2c(O)n(-c3nccs3)c(=O)c3ccccc23)c(C)c1 | -5.35 |
| Cc1ccc(SCCNC(=O)/C=C/c2ccccc2Cl)cc1 | 7.83 |
| O=C(Nc1ccc(Nc2ccccc2)cc1)C(Cl)(Cl)Cl | -4.13 |
| O=C1CN(C(=O)N[C@@H](Cc2ccccc2)C(=O)N[C@@H](Cc2ccccc2)C(=O)O)c2ccccc2N1 | 3.79 |
| CCC(=O)N1CCc2cc(S(=O)(=O)CCC(=O)NCc3cccc(OC)c3)ccc21 | 13.8 |

| Structure (SMILES) | hERG current change (%, negative = inhibition) at 10uM [%] |
| --- | --- |
| Cc1ccn2c(NC(=O)c3ccccc3)c(-c3ccccc3)nc2c1 | -14.8 |
| O=C(CCc1nnc(COc2ccccc2)o1)NC1(c2ccccc2)CC1 | -5.68 |
| CCN1C(=O)/C(=C/C=C2\C=CN(CC)c3ccccc32)SC1=S | -4.57 |
| O=C(Cn1nnc(-c2ccccc2Cl)n1)NCc1ccc2c(c1)OCO2 | 5.89 |
| COc1ccccc1C(=O)Nc1nc2nc(-c3ccccc3)cc(=O)n2[nH]1 | 13.3 |
| Cn1c(SCC(=O)Nc2ccccc2F)nnc1C1CCCCC1 | 0.775 |
| COC(=O)C1CSc2[nH]c(=O)sc2C1c1ccccc1 (stereo not drawn) | -16.3 |
| CC(=O)c1sc2nc(CSc3nnnn3-c3ccccc3)[nH]c(=O)c2c1C | -4.04 |
| COCCN(C(=O)CSc1nc2ccc(C)cc2[nH]1)c1c(N)n(Cc2ccccc2)c(=O)[nH]c1=O | 16.8 |
| Cc1cc(C)nc(NS(=O)(=O)c2ccc(NC(=S)NC(=O)CC(C)C)cc2)n1 | -8.57 |
| CCn1c2ccccc2c2cc(NC(=O)c3ccc(=O)oc3)ccc21 | 3.63 |
| Cc1c(Cl)cccc1N(CC(=O)N1CCCCCC1)S(C)(=O)=O | -5.82 |
| O=C(COC(=O)c1ccc(S(=O)(=O)NCc2ccco2)cc1)Nc1ccc(Cl)cn1 | 18.8 |
| Cc1cc(C(=O)Cn2nc(C(=O)O)c3ccccc3c2=O)c(C)n1-c1ccc(F)cc1 | -0.742 |
| Cc1ccc(NS(=O)(=O)c2cccc(C(=O)NNC(=O)c3cccn3C)c2)c(C)c1 | -8.9 |
| CCN(C(=O)C1CCCN(c2ncnc3c2nc2n3CCCCC2)C1)c1cccc(Cl)c1 (stereo not drawn) | -62.5 |
| Cc1cc(-c2ccccc2)c2c(=O)[nH][nH]c2n1 | 13.2 |
| O=C(O)CCCC(=O)Nc1ccc(Cl)c(Cl)c1 | 20.9 |
| COc1ccc(Cn2nnc(C(=O)Nc3ccc4c(c3)OCCO4)c2N)cc1Br | -0.0485 |
| CC1(C)Cc2nc3sc(C(=O)NCCO)c(N)c3cc2CO1 | -34.2 |
| CCOC(=O)C(C)Oc1cccc2c(=O)n(CC(=O)NCc3ccccc3)ccc12 (stereo not drawn) | 4.63 |
| Cc1ccccc1Cn1nc(C)c(NC(=O)c2cc(-c3cccs3)on2)c1C | -1.72 |

| Structure (SMILES) | hERG current change (%, negative = inhibition) at 10uM [%] |
| --- | --- |
| CCOC(=O)c1c(NC(=O)CC(C)C)sc(C(C)=O)c1C | 2.17 |
| COc1ccc(Nc2nc(-c3ccccc3)c3ccccc3n2)cc1 | -5.22 |
| CCOC(=O)C(NCc1ccccc1OC)(NC(C)=O)C(F)(F)F (stereo not drawn) | 23 |
| O=C(C1CCCN(S(=O)(=O)c2ccc(F)cc2)C1)N(Cc1cccs1)C1CC1 (stereo not drawn) | -78.2 |
| CC(=O)c1ccc(N=Cc2c(O)n(-c3cc(Cl)ccc3N3CCOCC3)c(=O)c3ccccc23)cc1 | 5.32 |
| C/C(=N\O)C1(C)N(O)C(C)(C)C(c2ccc(Br)cc2)=[N+]1[O-] (stereo not drawn) | 3.24 |
| CCCCNC(=O)Oc1cccc(N2CCCC2=O)c1 | 4.02 |
| O=C(Nc1ccc2[nH]ccc2c1)c1ccc(F)cc1 | 6.55 |
| COC(=O)c1ccc(N(CC(=O)NC2CCCC2)C(=O)CNC(=O)c2cccs2)cc1 | -7.76 |
| Cc1c(-c2ccc(F)cc2)nc(N)c(C#N)c1-c1cccs1 | 1.48 |
| COc1ccc(CCC(=O)NNC(=O)Nc2ccc(OC)c(OC)c2)cc1 | 3.33 |
| COc1ccccc1/C=C/C(=O)NC(=S)Nc1ccccn1 | 20.6 |
| CCOc1cc(CNn2nnnc2N)ccc1OCC(=O)NC(C)(C)C | 1.14 |
| CCOC(=O)c1[nH]c2ccccc2c1NC(=O)CC(C)(C)C | -17.2 |
| COc1ccc(CNC(=O)[C@H](C)NC(=O)C2CC(=O)N(c3ccc4c(c3)OCO4)C2)cc1 (stereo partly drawn) | 10.1 |
| O=C1CN(C(=O)COC(=O)CCCOc2ccccc2)c2ccccc2N1 | -9.99 |
| CCCc1cc(=O)[nH]c(SCCOc2ccc(Cl)cc2)n1 | 5.26 |
| CC(C)CCn1cnc2c(cnn2-c2ccc(Cl)cc2)c1=O | 3.53 |
| COc1cc2c(cc1OC)CN(c1ccc3ccccc3n1)CC2 | 13.1 |
| Cc1ccc(-c2csc(NC(=O)c3ccc(S(=O)(=O)N4CCc5ccccc54)cc3)n2)cc1 | 20.1 |
| O=C1Nc2ccccc2/C1=C/c1cnc(-c2ccccc2)[nH]1 | 26.2 |
